For five molecules, yeast fitness gain results are on record in the supplement of paper PMC11741623.

To fix the notation:
B1: FAM151A, Q8WW52 (protein)
chain: MVCREQLSKNQVKWVFAGITCVSVVVIAAIVLAITLRRPGCELEACSPDADMLDYLLSLGQISRRDALEVTWYHAANSKKAMTAALNSNITVLEADVNVEGLGTANETGVPIMAHPPTIYSDNTLEQWLDAVLGSSQKGIKLDFKNIKAVGPSLDLLRQLTEEGKVRRPIWINADILKGPNMLISTEVNATQFLALVQEKYPKATLSPGWTTFYMSTSPNRTYTQAMVEKMHELVGGVPQRVTFPVRSSMVRAAWPHFSWLLSQSERYSLTLWQAASDPMSVEDLLYVRDNTAVHQVYYDIFEPLLSQFKQLALNATRKPMYYTGGSLIPLLQLPGDDGLNVEWLVPDVQGSGKTATMTLPDTEGMILLNTGLEGTVAENPVPIVHTPSGNILTLESCLQQLATHPGHWGIHLQIAEPAALRPSLALLARLSSLGLLHWPVWVGAKISHGSFSVPGHVAGRELLTAVAEVFPHVTVAPGWPEEVLGSGYREQLLTDMLELCQGLWQPVSFQMQAMLLGHSTAGAIGRLLASSPRATVTVEHNPAGGDYASVRTALLAARAVDRTRVYYRLPQGYHKDLLAHVGRN
B2: PARS2, Q7L3T8 (protein)
chain: MEGLLTRCRALPALATCSRQLSGYVPCRFHHCAPRRGRRLLLSRVFQPQNLREDRVLSLQDKSDDLTCKSQRLMLQVGLIYPASPGCYHLLPYTVRAMEKLVRVIDQEMQAIGGQKVNMPSLSPAELWQATNRWDLMGKELLRLRDRHGKEYCLGPTHEEAITALIASQKKLSYKQLPFLLYQVTRKFRDEPRPRFGLLRGREFYMKDMYTFDSSPEAAQQTYSLVCDAYCSLFNKLGLPFVKVQADVGTIGGTVSHEFQLPVDIGEDRLAICPRCSFSANMETLDLSQMNCPACQGPLTKTKGIEVGHTFYLGTKYSSIFNAQFTNVCGKPTLAEMGCYGLGVTRILAAAIEVLSTEDCVRWPSLLAPYQACLIPPKKGSKEQAASELIGQLYDHITEAVPQLHGEVLLDDRTHLTIGNRLKDANKFGYPFVIIAGKRALEDPAHFEVWCQNTGEVAFLTKDGVMDLLTPVQTV
B3: CHN1, P15882 (protein)
chain: MALTLFDTDEYRPPVWKSYLYQLQQEAPHPRRITCTCEVENRPKYYGREFHGMISREAADQLLIVAEGSYLIRESQRQPGTYTLALRFGSQTRNFRLYYDGKHFVGEKRFESIHDLVTDGLITLYIETKAAEYIAKMTINPIYEHVGYTTLNREPAYKKHMPVLKETHDERDSTGQDGVSEKRLTSLVRRATLKENEQIPKYEKIHNFKVHTFRGPHWCEYCANFMWGLIAQGVKCADCGLNVHKQCSKMVPNDCKPDLKHVKKVYSCDLTTLVKAHTTKRPMVVDMCIREIESRGLNSEGLYRVSGFSDLIEDVKMAFDRDGEKADISVNMYEDINIITGALKLYFRDLPIPLITYDAYPKFIESAKIMDPDEQLETLHEALKLLPPAHCETLRYLMAHLKRVTLHEKENLMNAENLGIVFGPTLMRSPELDAMAALNDIRYQRLVVELLIKNEDILF
B4: CNTD1, Q8N815 (protein)
chain: MDGPMRPRSASLVDFQFGVVATETIEDALLHLAQQNEQAVREASGRLGRFREPQIVEFVFLLSEQWCLEKSVSYQAVEILERFMVKQAENICRQATIQPRDNKRESQNWRALKQQLVNKFTLRLVSCVQLASKLSFRNKIISNITVLNFLQALGYLHTKEELLESELDVLKSLNFRINLPTPLAYVETLLEVLGYNGCLVPAMRLHATCLTLLDLVYLLHEPIYESLLRASIENSTPSQLQGEKFTSVKEDFMLLAVGIIAASAFIQNHECWSQVVGHLQSITGIALASIAEFSYAILTHGVGANTPGRQQSIPPHLAARALKTVASSNT
B5: HS3ST3B1, Q9Y662 (protein)
chain: MGQRLSGGRSCLDVPGRLLPQPPPPPPPVRRKLALLFAMLCVWLYMFLYSCAGSCAAAPGLLLLGSGSRAAHDPPALATAPDGTPPRLPFRAPPATPLASGKEMAEGAASPEEQSPEVPDSPSPISSFFSGSGSKQLPQAIIIGVKKGGTRALLEFLRVHPDVRAVGAEPHFFDRSYDKGLAWYRDLMPRTLDGQITMEKTPSYFVTREAPARISAMSKDTKLIVVVRDPVTRAISDYTQTLSKRPDIPTFESLTFKNRTAGLIDTSWSAIQIGIYAKHLEHWLRHFPIRQMLFVSGERLISDPAGELGRVQDFLGLKRIITDKHFYFNKTKGFPCLKKAEGSSRPHCLGKTKGRTHPEIDREVVRRLREFYRPFNLKFYQMTGHDFGWD

The list shows a part of the results. Interaction screen of human proteins with wild-type SARS-CoV-2 proteins by split-DHFR complementation in yeast, 1 µg/mL methotrexate. Value = fitness of the pair (three or more lineages) minus that of the viral protein without a human partner, on a scale set by negative (0) and fused positive (1) controls, mean of up to three cultures; higher = more likely to interact. Active = false discovery rate below 0.05 (one-sided t-test) in at least one culture. Nearly all pairs are not hits, and differences among them are mostly noise (correlation between cultures about 0.3); most hits were seen in one culture only. Human sequences are the Swiss-Prot entries looked up by gene name; the clone may be another isoform. NSP2 values were corrected by the authors for a growth advantage. Listed are human proteins with a hit and a random twelfth of the others.

The first test concerns the target SARS-CoV-2 M. As to the kind of experiment: yeast fitness gain over the viral ORF with no human partner (scaled fitness); higher = more likely to interact. How it is done: (§1)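 Split mouse DHFR complementation in pooled diploid yeast: human ORFeome clones carry one fragment and viral ORFs the other; barcoded lineages compete in 1 µg/mL methotrexate and fitness is read by barcode sequencing in up to three cultures.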
In the case of B1, the yeast fitness gain is inactive: -0.0337.

Consider B2, for which the yeast fitness gain is inactive: 0.026.

As for B3, the yeast fitness gain is inactive: -0.148.

For B4, the yeast fitness gain is inactive: -0.0873.

As to B5, the yeast fitness gain was inactive: -0.0878.

For another test, the target named is SARS-CoV-2 NSP1. Described as above. How it is done:
as §1
For the molecule B1, the yeast fitness gain is inactive: 0.0593.

For B2, the yeast fitness gain was inactive: -0.0474.

Another test concerns the target SARS-CoV-2 NSP10. The test is described as above. How it is done:
as §1
With B1, the yeast fitness gain was inactive: 0.141.

Consider B2, for which the yeast fitness gain was inactive: -0.00262.

For B5, the yeast fitness gain is inactive: -0.0771.

The next test addresses SARS-CoV-2 NSP12. The test is described as above. How it is done: as §1
Turning to B1, the yeast fitness gain is inactive: 0.0977.

As for B2, the yeast fitness gain was inactive: 0.0121.

For B3, the yeast fitness gain was inactive: 0.0235.

As for B4, the yeast fitness gain is inactive: 0.00944.

As to B5, the yeast fitness gain was inactive: -0.416.

The next test deals with SARS-CoV-2 NSP13. The test is described as above. How it is done:
as §1
On to B1, for which the yeast fitness gain was inactive: 0.0174.

On to B2, for which the yeast fitness gain is inactive: -0.00824.

As for B3, the yeast fitness gain was inactive: 0.0261.

B4: the yeast fitness gain is inactive: 0.0395.

For B5, the yeast fitness gain is inactive: -0.0864.

The target of the next test is SARS-CoV-2 NSP15. The description is as above. How it is done:
as §1
Regarding B1, the yeast fitness gain was inactive: 0.0534.

For B2, the yeast fitness gain is inactive: 0.0641.

The target of another test is SARS-CoV-2 NSP16. The test is described as above. How it is done:
as §1
Consider B1, for which the yeast fitness gain was inactive: 0.0084.

Take B2: the yeast fitness gain was inactive: -0.0848.

The target of a further test is SARS-CoV-2 NSP2. The test is described as above. How it is done: as §1
B1: the yeast fitness gain was inactive: -0.215.

As for B2, the yeast fitness gain was inactive: -0.123.

For the molecule B4, the yeast fitness gain was inactive: -0.301.

With B5, the yeast fitness gain was inactive: -0.218.

In the next test the target is SARS-CoV-2 NSP5. Described as above. The procedure: as §1
Regarding B1, the yeast fitness gain is inactive: -0.0261.

Turning to B2, the yeast fitness gain was inactive: 0.0566.

A further test concerns the target SARS-CoV-2 NSP7. The test is described as above. The procedure:
as §1
Regarding B1, the yeast fitness gain was inactive: -0.0738.

In the case of B2, the yeast fitness gain was inactive: -0.0488.

With B5, the yeast fitness gain was inactive: 0.0293.

For a further test, the target named is SARS-CoV-2 NSP8. Described as above. How it is done:
as §1
For the molecule B1, the yeast fitness gain was inactive: 0.13.

Consider B2, for which the yeast fitness gain was inactive: 0.062.

As for B5, the yeast fitness gain is inactive: -0.00425.

For a further test, the target named is SARS-CoV-2 ORF10. The description is as above. How it is done: as §1
B1: the yeast fitness gain was inactive: -0.12.

Turning to B2, the yeast fitness gain is inactive: -0.0176.

In the case of B5, the yeast fitness gain was inactive: -0.151.

In the next test the target is SARS-CoV-2 ORF3B. The test is described as above. How it is done:
as §1
As for B1, the yeast fitness gain is inactive: 0.00726.

As for B2, the yeast fitness gain was inactive: 0.033.

In the case of B4, the yeast fitness gain was inactive: -0.0838.

With B5, the yeast fitness gain was inactive: 0.0379.

Another test addresses SARS-CoV-2 ORF6. The test is described as above. The procedure: as §1
On to B1, for which the yeast fitness gain is inactive: 0.0474.

As to B2, the yeast fitness gain was inactive: 0.0818.

Take B3: the yeast fitness gain is inactive: -0.0881.

As for B4, the yeast fitness gain is inactive: -0.0473.

The next test concerns the target SARS-CoV-2 ORF7A. Described as above. How it is done:
as §1
For B1, the yeast fitness gain was inactive: -0.00516.

As to B2, the yeast fitness gain was inactive: -0.0504.

For B3, the yeast fitness gain is inactive: 0.0639.

Regarding B4, the yeast fitness gain is inactive: -0.121.

A further test deals with SARS-CoV-2 ORF7B. The description is as above. The procedure:
as §1
With B1, the yeast fitness gain is inactive: -0.167.

In the case of B2, the yeast fitness gain is inactive: 0.036.

Regarding B4, the yeast fitness gain is inactive: -0.144.

The target in another test is SARS-CoV-2 ORF8. The test is described as above. The procedure:
as §1
On to B1, for which the yeast fitness gain is inactive: -0.0738.

B2: the yeast fitness gain was inactive: -0.0342.

With B3, the yeast fitness gain was inactive: -0.0549.

As for B4, the yeast fitness gain was inactive: -0.0575.

As for B5, the yeast fitness gain is inactive: 0.0732.

Another test concerns the target SARS-CoV-2 ORF9B. The test is described as above. How it is done:
as §1
In the case of B1, the yeast fitness gain was inactive: 0.0092.

For the molecule B2, the yeast fitness gain is inactive: -0.0156.

B3: the yeast fitness gain is inactive: -0.257.

On to B5, for which the yeast fitness gain is inactive: -0.0661.

Another test concerns the target SARS-CoV-2 N. Described as above. The procedure: as §1
Take B2: the yeast fitness gain was inactive: -0.00439.

Another test has as its target SARS-CoV-2 NSP6. Described as above. How it is done: as §1
Regarding B2, the yeast fitness gain is inactive: 0.0125.

B4: the yeast fitness gain is inactive: -0.0306.

Turning to B5, the yeast fitness gain was inactive: -0.0644.

The target in the next test is SARS-CoV-2 NSP9. Described as above. The procedure: as §1
Consider B2, for which the yeast fitness gain is inactive: -0.13.

Turning to B4, the yeast fitness gain was inactive: -0.161.

The next test addresses SARS-CoV-2 ORF3A. The description is as above. How it is done: as §1
On to B2, for which the yeast fitness gain is inactive: -0.101.

Take B5: the yeast fitness gain is inactive: -0.429.

The target in a further test is SARS-CoV-2 ORF9Bwu (the 73-codon ORF). Described as above. The procedure: as §1
Take B2: the yeast fitness gain is inactive: -0.0567.

Another test addresses SARS-CoV-2 S. The test is described as above. How it is done:
as §1
Turning to B2, the yeast fitness gain was inactive: 0.0267.
